Test results taken from PubChem BioAssay AID624202 (National Center for Advancing Translational Sciences (NCATS), 2012).
About 4,000 (1.1%) of roughly 380,000 compounds were called active. The shares of active, inactive and inconclusive entries below differ from those in the screen. The call rests on the fitted dose curve; in most records, active means well fitted activation curve with a large enough effect; inconclusive means small, poorly fitted or top-dose-only effect; inactive means no such curve, though single readings can be large or run the other way. Where the call is inconclusive, the potency comes from a doubtful curve fit.

test: qHTS Assay to Identify Small Molecule Activators of BRCA1 Expression; details: MCF7-BRCA1-FFLuc reporter, luminescence, 48 h; activation: at 46.1 µM (top of the series), scaled: vehicle 0%, 10 µM genistein 100% unless noted; further: nearly all actives have a fitted effect of over 80% in size
In short: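 48 h compound treatment of MCF7-BRCA1-FFLuc cells (phenol-red free MEM, 37 °C), then 15 min with luciferase substrate and luminescence imaging.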
Potency means the concentration at half of the fitted maximal effect; tags describe the fitted curve by direction and shape.

Row | Compound | Potency | activation
1 | CC(C)c1ccc(NC(=O)Cn2c(=O)oc3cc(S(=O)(=O)N4CCCC4)ccc32)cc1 | inactive | –
2 | CC(=O)c1cccc(S(=O)(=O)NC2CC2)c1 | inactive | –
3 | Cc1cccc(Cc2nnc(CCC(=O)N(C)CCc3ccccc3)o2)c1 | active: 3.55 µM | –
4 | COc1ccc2c(c1)CCc1c(C(=O)NCc3ccco3)noc1-2 | active: 6.31 µM | –
5 | c1ccc(-c2nc(-c3ccccn3)no2)cc1 | – | inconclusive: -91.7% [activator]
6 | Cc1cc(SCC(=O)c2ccccc2)nc(=O)[nH]1 | inconclusive: 2.82 µM [activator, full curve, poor fit] | –
7 | O=C(NC1CCCCC1)C(=O)c1c[nH]c2ccccc12 | active: 12.6 µM | –
8 | Cc1ccc(-c2nnc(/C=C/c3ccccc3)o2)cc1 | inconclusive: 17.8 µM [activator, partial curve, poor fit] | –
9 | CCc1ccc(C(=O)Nc2cc3c(cc2Cl)OCCCO3)cc1 | inactive | –
10 | CC(C)c1nnc(NC(=O)COc2ccccc2[N+](=O)[O-])s1 | active: 10 µM | –
11 | Nc1nccnc1C(=O)N/N=C/c1ccco1 | inconclusive: 15.8 µM [activator, partial curve, poor fit] | –
12 | COc1cccc(/C=N/NC(=O)Cn2cnc3c2c(=O)n(C)c(=O)n3C)c1OC | inactive | –
13 | CCOC(=O)c1sc(-c2ccc(F)cc2)cc1N | active: 11.2 µM | –
14 | O=[N+]([O-])c1ccc2nc(-c3cccnc3)[nH]c2c1 | inconclusive: 12.6 µM [activator, single point] | –
15 | CCOC(=O)c1ccc(N2Cc3ccccc3C2=NC(=O)c2cccs2)cc1 | active: 10 µM | –
16 | COc1cccc(NC(=O)Nc2cccs2)c1 | active: 12.6 µM | –
17 | COc1ccc(CNC(=O)CSCc2ccccc2Cl)cc1 | inconclusive: 17.8 µM [activator, single point] | –
18 | Cc1cc(OCc2cc(C(=O)NCc3cc(C(C)C)no3)no2)cc(C)c1Cl | inconclusive: 2.82 µM [activator, full curve, poor fit] | –
19 | COc1cc(/C=N/NC(N)=S)ccc1OCc1ccc(C)cc1 | inactive | –
20 | c1ccn2cc(CSC3=NCCS3)nc2c1 | active: 6.31 µM | –
21 | CCOc1cccc(C(=O)NC2=NCCS2)c1 | inconclusive: 1.58 µM [activator, partial curve, poor fit] | –
22 | O=C(NCCc1c[nH]c2ccccc12)c1cc(Cl)c2c(c1)OCO2 | active: 3.55 µM | –
23 | CCCCc1c(O)nc2sccn2c1=O | inactive | –
24 | COc1cccc(NC(=O)c2ccc3nsnc3c2)c1 | inconclusive: 7.94 µM [activator, partial curve, poor fit] | –
25 | CCOc1ccc(OCCn2c(=S)[nH]c3ccccc32)cc1 | inactive | –
26 | O=C(C[n+]1ccccc1Cl)c1ccc(O)c(O)c1 | inactive | –
27 | CC#CCCCC(=O)Nc1ccccc1C(=O)O | active: 11.2 µM | –

Row | Compound | Potency | activation
28 | O=C(COc1ccccc1C(=O)Nc1cccnc1)Nc1ccc(Br)cc1 | inactive | –
29 | Cc1cccc(NC(=O)Nc2cccc(C#N)c2)n1 | inconclusive: 12.6 µM [activator, partial curve, poor fit] | –
30 | Cn1c(CCNC(=O)c2ccco2)nc2cc(NC(=O)C3CCCCC3)ccc21 | inconclusive: 17.8 µM [activator, single point] | –
31 | Cc1noc2ncnc(Sc3ccccc3Cl)c12 | inactive | –
32 | Cn1/c(=N/N=C/c2ccc(N3CCOCC3)cc2)sc2ccccc21 | inconclusive: 14.1 µM [activator, partial curve, poor fit] | –
33 | O=C(N/N=C/c1ccc(OC(=O)c2ccccc2)cc1)c1cccc(O)c1 | inconclusive: 35.5 µM [activator, single point] | –
34 | CCCc1nc2ccc(C)cn2c1Cc1ccc(C)cc1 | active: 7.08 µM | –
35 | CCNC(=S)Nc1ccc2c(c1)oc1ccccc12 | active: 4.47 µM | –
36 | O=CN1CCN(C(=O)c2ccc3c(c2)OCO3)CC1 | inactive | –
37 | O=C(NCCC1=CCCCC1)c1ccc(Cl)c([N+](=O)[O-])c1 | active: 7.94 µM | –
38 | O=C(Nc1ccc(N2CCCC2)c(Cl)c1)c1cccs1 | inconclusive: 1.58 µM [activator, full curve, poor fit] | –
39 | CCCCc1ccc(-c2ccc(Br)cc2)nc1 | inconclusive: 2.24 µM [activator, full curve, poor fit] | –
40 | Cc1nc2ccccc2c2oc(C(=O)NCCCN3CC(C)CC(C)C3)cc12 (centres undefined) | inactive | –
41 | O=C(N/N=C/c1ccc([N+](=O)[O-])s1)c1ccccc1Br | inactive | –
42 | Cc1ccc(C(=O)/C=C2/NC(=O)CS2)cc1 | inconclusive: 8.91 µM [activator, partial curve, poor fit] | –
43 | Cn1c(SCC(=O)Nc2ccc3c(c2)oc2ccccc23)nnc1-c1ccccc1 | inconclusive: 11.2 µM [activator, partial curve, poor fit] | –
44 | CCOc1ccc(NC(=O)CC2CC(C)(C)OC2=O)cc1 (centres undefined) | inactive | –
45 | COc1cccc(-c2nc(-c3ccncc3)no2)c1 | inconclusive: 1.26 µM [activator, partial curve, poor fit] | –
46 | O=C(CSc1ccc(Cl)cc1)c1ccco1 | inactive | –
47 | O=c1[nH]c(/C=C/c2cccc(Br)c2)nc2ccccc12 | inconclusive: 2 µM [activator, partial curve, poor fit] | –
48 | O=C(Nc1ccc(Br)cc1)c1cc2ccccn2n1 | inconclusive: 2.51 µM [activator, partial curve, poor fit] | –
49 | CC(=O)c1ccc(N(C(=O)CNC(=O)c2ccco2)C(C(=O)NC2CCCC2)c2ccc(C)o2)cc1 (centres undefined) | inactive | –
50 | Nc1c(-c2ccc(Cl)cc2)nnn1-c1ccccc1 | active: 7.08 µM | –
51 | C=CCN(C(=O)C1=NN(C2CCS(=O)(=O)C2)C(=O)CC1)c1nc(-c2ccc([N+](=O)[O-])cc2)cs1 (centres undefined) | active: 5.01 µM | –
52 | CC1CCN(C(=O)CCNS(=O)(=O)c2ccccc2)CC1 | inconclusive: 17.8 µM [activator, partial curve, poor fit] | –
53 | COc1cc(C(=O)N/N=C/c2sc(N3CCOCC3)nc2-c2ccccc2)cc(OC)c1OC | inactive | –
54 | CC1=CC(=C2C(=O)c3ccccc3C2=O)C=C(C)N1Cc1ccco1 | inconclusive: 2.24 µM [activator, partial curve, poor fit] | –

Row | Compound | Potency | activation
55 | CNc1nnc(-c2cccc(N(C)C)c2)s1 | inconclusive: 7.08 µM [activator, full curve, poor fit] | –
56 | CCSc1ccc(-c2ccco2)nn1 | inconclusive: 11.2 µM [activator, partial curve, poor fit] | –
57 | O=C(Nc1ccc(O)cc1)c1c(O)c2c([nH]c1=O)CCCC2 | inconclusive: 1.26 µM [activator, full curve, poor fit] | –
58 | CCOC(=O)C1(Cc2cccc(OC)c2)CCCN(C(=O)CCc2cccnc2)C1 (centres undefined) | inconclusive: 12.6 µM [activator, single point] | –
59 | CC(C)C(=O)N(Cc1ccc(F)cc1)Cc1nc2ccccc2c(=O)[nH]1 | inactive | –
60 | Cc1ccc(-c2ccc(CCC(=O)O)n2-c2cccc(C(=O)O)c2)cc1 | active: 7.08 µM | –
61 | CCS(=O)(=O)c1ccc(O)c(NC(=O)/C=C/c2ccccc2)c1 | active: 12.6 µM | –
62 | C/C(=N\NC(=O)c1ccccc1O)c1ccc(NC(=O)Cc2ccccc2)cc1 | inconclusive: 14.1 µM [activator, partial curve, poor fit] | –
63 | COC(=O)N1CC=CC1(C)C(=O)NCc1cc(F)cc(C(F)(F)F)c1 (centres undefined) | inactive | –
64 | Cc1ccc(-c2noc(-c3ccc(NCC4CCCO4)c([N+](=O)[O-])c3)n2)cc1 (centres undefined) | inactive | –
65 | O=C(N/N=C/c1ccc(Cl)cc1Cl)c1cccc(F)c1 | inconclusive: 2 µM [activator, partial curve, poor fit] | –
66 | CN(C)c1ccc(CNc2ncc(Br)cc2Br)cc1 | inconclusive: 14.1 µM [activator, partial curve, poor fit] | –
67 | Cc1ccc2nc3ccc(N4CCCCCCC4)nn3c(=O)c2c1 | inconclusive: 7.08 µM [activator, partial curve, poor fit] | –
68 | Cc1cccc(-n2c(-c3csc(C)c3)n[nH]c2=S)c1 | inactive | –
69 | Cc1sc(=NC(=O)c2ccco2)n(C)c1-c1ccc(F)cc1 | inconclusive: 2 µM [activator, full curve, poor fit] | –
70 | Cc1ccc(C(=O)CSc2nnnn2-c2ccccc2)o1 | inconclusive: 31.6 µM [activator, single point] | –
71 | COc1cccc(-c2nnc(N(C)C(=O)C3CCOC3)s2)c1 (centres undefined) | inconclusive: 14.1 µM [activator, partial curve, poor fit] | –
72 | Nc1nnn(CC(=O)N/N=C/C=C/c2ccccc2)n1 | inactive | –
73 | Cc1cc[n+](CC(=O)Nc2ccccc2)cc1 | inconclusive: 15.8 µM [activator, single point] | –
74 | Cc1ccc(NC(=O)c2cnccn2)c(Br)c1 | inconclusive: 10 µM [activator, partial curve, poor fit] | –
75 | COc1ccc(-n2c(=O)c3c4c(sc3n(Cc3cc(=O)n5c(C)cccc5n3)c2=O)CCC4)c(OC)c1 | inactive | –
76 | Cc1ccc(NC(=O)c2ccc(Oc3ncccn3)cc2)cc1 | inconclusive: 8.91 µM [activator, partial curve, poor fit] | –
77 | Cc1ccnc(NC(=O)c2ccc(OCc3c(C)noc3C)cc2)c1 | inconclusive: 35.5 µM [activator, single point] | –
78 | CC(=O)c1ccccc1NC(=O)c1ccc(N2CCCC2=O)cc1 | active: 7.94 µM | –
79 | N/C(=N\OCc1ccccc1)c1nonc1N | inconclusive: 8.91 µM [activator, partial curve, poor fit] | –
